“And” between values parts separate entries of the source, which are not always exact repeats. Identical values can stand only once. Out of some 48,000 compounds screened, about 1,200 (2.5%) were called active. Not shown: some 2% with an inconclusive outcome.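 The calls were made as follows: active = activation of at least 60% and not above a set upper limit (about 1 call in 100 departs from these limits); inconclusive = activation of 40% to 60%, or above that upper limit; inactive = activation under 40%.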 The list shows a part of the results. Where a SMILES comes first, the peptide text is derived from it. Bridges are numbered along the chain shown (N, C = ends). [ ]: non-standard residue; d: D form. hArg = N=C(N)NCCCC[C@H](N)C(=O)O; Mpa = O=C(O)CCS
The compounds below were run against Probable G-protein coupled receptor 32 (Homo sapiens) (UniProt O75388) (assay: qHTS for Agonists of Human Resolvin D1 Receptor DRV1). Settings: CHO-K1 GPR32 beta-arrestin PathHunter luminescence, 90 min; at 76.9 µM; hits give high values; zero percent set by DMSO-only wells.
Sequence of UniProt O75388 (O75388 whole entry, looked up): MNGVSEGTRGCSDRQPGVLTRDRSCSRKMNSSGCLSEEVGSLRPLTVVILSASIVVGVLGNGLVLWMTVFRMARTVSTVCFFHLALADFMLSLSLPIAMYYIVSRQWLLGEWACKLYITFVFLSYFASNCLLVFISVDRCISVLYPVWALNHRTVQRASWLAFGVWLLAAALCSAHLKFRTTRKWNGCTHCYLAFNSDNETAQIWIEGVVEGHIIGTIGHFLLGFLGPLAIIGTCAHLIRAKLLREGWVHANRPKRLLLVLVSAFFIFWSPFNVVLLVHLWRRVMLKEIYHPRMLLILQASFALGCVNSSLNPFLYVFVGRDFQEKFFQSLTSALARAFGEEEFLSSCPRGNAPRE
Procedure, shortened: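 Step 1: seed CHO-K1 GPR32 beta-arrestin cells, 2,500/well, overnight at 37 °C. Step 2: add compounds, 90 min at 37 °C. Step 3: detection reagent, 1 h ambient, then luminescence.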
Also: 0% is about no effect.

activation, active:
CCOc1cccc(-c2nc3ccccc3c(=O)o2)c1 80.2%
Cc1ccc(C(=O)c2sc(Nc3ccc(F)cc3)c(C#N)c2N)cc1 85.9%
CC(C)(CC(=O)NCc1ccc(Cl)cc1Cl)CC1=NS(=O)(=O)c2ccccc2N1 110%

activation, inactive:
CCOC(=O)C1=C(CN(CC)Cc2ccccc2)NC(=O)NC1c1ccc(OC)cc1 (configuration not stated) -15.9%
COC(=O)c1c(-c2ccc(Cl)cc2)noc1N1CCN(c2ccccc2F)CC1 7.94%
CCCCNC(=O)c1ccc2c(c1)NC(=O)C(C(C)C)N2 (configuration not stated) -1.45%
COc1ccc2c(c1)c1c(c(=O)n(-c3ccc(F)c(Cl)c3)c(=O)n1Cc1ccccc1F)n2C -3.86%
COc1ccccc1NC(=O)C(=O)c1cc(C)n(-c2cc(C)cc(C)c2)c1C -7.59%
N#Cc1c(-n2ncnc2-c2cccc(Cl)c2)sc2c1CCCCC2 -6.59%
O=C1CN(C(=O)c2cccc(Br)c2)C(c2ccccc2)c2cc(Cl)ccc2N1 (configuration not stated) -14.3%
COc1cccc(C(=O)Nc2nc(-c3nnn(-c4cc(C)ccc4C)c3C)ns2)c1 31.4%
COc1ccc(Cl)cc1NC(=O)C(=O)NCc1ccc(Cl)cc1 -7.5%
Cc1cc(C)c2oc(C(=O)NCCc3ccc(S(N)(=O)=O)cc3)cc(=O)c2c1 -15.4%
CC(C)(C)c1ccc(C(=O)NC2=NC(c3cccc(F)c3)CC(=O)N2)cc1 (configuration not stated) -1.11%
O=C1CC(c2ccccc2)Cc2[nH]c(=O)c(-c3nc(-c4ccc(Cl)c(Cl)c4)cs3)cc21 (configuration not stated) 45.5%
COC(=O)C1=C(C)NC(C)=C(C(=O)OC(C)(C)CN(C)CCC(c2ccccc2)c2ccccc2)C1c1cccc([N+](=O)[O-])c1 (configuration not stated) 13% and -47.7%
Cc1ccc(NC(=O)N2CCN(C(=O)c3nsc4ccccc34)CC2)cc1C 1.73%
COCCNS(=O)(=O)c1cc(-c2nn3c(C)nnc3c3ccccc23)ccc1C -29.1%
O=C(CNS(=O)(=O)c1ccc(Br)s1)N1CCN(c2ccc(F)cc2)CC1 9.68%
C[C@]12CCC(=O)C=C1CC[C@@H]1[C@@H]2CC[C@@]2(C)[C@H]1CC[C@]2(O)C(=O)CO 7.75% and -19.4%
CCS(=O)(=O)NCCc1sc2nc(-c3ccc(OC)cc3)nn2c1C 0.775%
O=C(O)/C=C/C(O)c1ccc(Cl)cc1 (configuration not stated) 2.31%
Cc1cccc(CCn2c(=O)c3ccccc3n(Cc3ccccc3C)c2=O)c1 -3.22%
COc1cccc(NC(=O)CN2C=NS(=O)(=O)c3ccccc32)c1 -11.6%
COc1cccc(-c2nc3c(c(SCC(=O)Nc4cccc(C)c4C)n2)Cc2c(CO)cnc(C)c2O3)c1 4.28%
Cc1cccn2c(=O)cc(COc3ccc(NC(=O)COc4ccc(F)cc4)cc3)nc12 -1.08%
CCOc1ccccc1NC(=O)N1CC(C)Oc2ccc(Cl)cc21 (configuration not stated) -38.4%
CCOC(=O)c1cnc(NCc2ccc(OC)cc2OC)c2ccccc12 -26.4%
Cc1ccc(OC(=O)CSc2nnc(-c3ccc4c(c3)OCO4)o2)c(C)c1 -16.3%
COc1ccc2c(c1)c1c(c(=O)n(Cc3ccccc3)c(=O)n1CC(=O)Nc1ccccc1F)n2C -1.67%
FC(F)(F)c1cccc(N2CCN(c3nc4ccccc4n4cnnc34)CC2)c1 0.729%
COc1ccc(-n2c(SC)nc3sc4c(c3c2=O)CCN(C(C)=O)C4)cc1 -6.36%
c1ccc(-c2ccc(C(c3ccccc3)n3ccnc3)cc2)cc1 (configuration not stated) -95.1%
Cc1ccc(NC(=O)CSc2nnc(-c3cc4occc4n3C)n2-c2ccccc2C)c(C)c1 -21.1%
COc1ccc(CNC(=O)C2CCN(C(=O)c3cnn(-c4ccccc4)c3-n3cccc3)CC2)cc1 0%
COC(=O)c1ccccc1NC(=O)CSc1n[nH]c(C)n1 6.43%
Cc1ccn2c(=O)cc(COc3ccc(NC(=O)C(C)(C)C)cc3)nc2c1 -1.54%
Cc1ccc2c(c1)N(C(=O)Nc1ccc(Br)cc1F)CCO2 -17.1%
O=c1c2sc3ccccc3c2n(Cc2cccc(C(F)(F)F)c2)c(=O)n1-c1ccccc1 -12.9%
CC(C)Oc1ccc(CNC(=O)CN2C(=O)c3cccnc3Oc3ccc(Cl)cc32)cc1 -9.12%
CCS(=O)(=O)N1CCc2cc(C(=O)NC(C)c3ccccc3)ccc21 (configuration not stated) 1.12%
COc1ccccc1N1CCN(CCCNc2c(C)c(=O)n(C)c(=O)n2C)CC1 1.02%
CCCCCn1c(=N)c(S(=O)(=O)c2ccc(C)cc2)cc2c(=O)n3cc(C)ccc3nc21 -6.33%
COc1ccc(S(=O)(=O)c2cc3cc(C(C)(C)C)cc(O)c3oc2=O)cc1 -23.1%
Cn1c(COc2ccccc2C(C)(C)C)nc2ccccc21 -17.5%
Cn1c2c(c(=O)n(C)c1=O)C(c1ccccc1C(F)(F)F)CC(=O)N2 (configuration not stated) -1.31%
CCOC(=O)c1ccc(CN(Cc2ccc(F)cc2)S(=O)(=O)c2ccc(F)c(C(=O)Nc3ccccc3C(F)(F)F)c2)cc1 -17.5%
COC(=O)c1ccc(NS(=O)(=O)c2ccc3c(c2)n(C)c(=O)c(=O)n3C)cc1 -10%
Cc1ccc(C(=O)N2CCN(c3cccc(Cl)c3)CC2)cc1-n1c(C)nc2cccnc21 0.0762%
CCNC(=O)CC1C(=O)N(c2ccc(F)cc2)C(=O)N1Cc1ccc(OC)c(OC)c1 (configuration not stated) -2.08%
COc1cc(Cl)c(C)cc1NC(=O)C1CCCN(c2ncnc3onc(-c4ccc(F)cc4)c23)C1 (configuration not stated) -16.6%
CCc1ccccc1N(CC)C(=O)C(=O)Nc1ccc2nc3n(c(=O)c2c1)CCCCC3 32.2%
O=C(c1ccc2c(c1)N(Cc1cccc(Cl)c1)C(=O)c1ccccc1S2(=O)=O)N1CCc2ccccc21 -14.9%
O=C(NCc1ccc(Cl)cc1)C(=O)NCC(c1ccc2c(c1)OCO2)N1CCOCC1 (configuration not stated) -13.7%
COc1cc2ccccc2cc1C(=O)N1CCN(c2nc3c(F)cccc3s2)CC1 -17.4%
COCCN1C(=O)N(c2cccc(OC)c2)C(=O)C1CC(=O)Nc1ccccc1 (configuration not stated) -3.51%
CCCCc1nn2c(=O)cc(COC(=O)c3cccc(NC(=O)c4cccs4)c3)nc2s1 -0.444%
CC(=O)c1ccc(NC(=O)c2cc3c([nH]c2=O)CC(c2ccccc2)CC3=O)cc1 (configuration not stated) 10.6%
CCOc1ccc2c(c1)c(=O)c(C(=O)c1ccccc1)cn2Cc1ccccc1F 10.6%
CN1C(=O)Cc2cc(S(=O)(=O)CCC(=O)Nc3ccc(Cl)cc3)ccc21 0.01%
COc1ccc(CCNC(=O)c2cnn(-c3cccc(C)c3)c2C2CCNCC2)cc1OC -5.86%
O=C(c1ccccc1)N1CCC(c2nc3ccccc3o2)CC1 6.53%
Cc1cc(F)ccc1NC(=O)CCS(=O)(=O)c1cc2c3c(c1)CCN3C(=O)CC2 1.5%
CCN(CC)C(=O)c1sc2c(c1C)c(=O)n(-c1ccc(C)c(C)c1)c(=O)n2CC(=O)Nc1ccc(OC)cc1OC -18.1%
COc1ccc(OC)c(CNS(=O)(=O)c2cc(-c3onc(C)c3C)ccc2C)c1 -23.6%
CN(C)CCC(c1ccc(Br)cc1)c1ccccn1 (configuration not stated) 5.13%
CC(=O)c1ccc(NC(=O)CSc2nnc(-c3ccncc3)n2-c2ccccc2)cc1 13.9%
COc1ccc(/C=C/C(=O)Nc2cc(-c3nc4ccccc4o3)ccc2OC)cc1 20.5%
Cc1cc(C)n2c(Nc3ccc4c(c3)OCCO4)c(-c3ccccc3)nc2n1 -30.5%
CCS(=O)(=O)N1CC(=O)N(c2cc(C)cc(C)c2)C(C)(C(=O)NC2CCCCC2)C1 (configuration not stated) -0.224%
COc1ccc(N2CCN(CCCNC(=O)c3nnc(Cc4ccccc4Cl)o3)CC2)cc1 2.71%
Cc1ccc(S(=O)(=O)c2[nH]c(-c3ccccc3)nc2SC(C)C(=O)O)cc1 (configuration not stated) 5.76%
CCOc1ccccc1NC(=O)CC1C(=O)NCCN1C(=O)c1ccc(F)cc1 (configuration not stated) 7.71%
NC(=O)[C@@H]1CSSCCC(=O)N[C@@H](CCCCN=C(N)N)C(=O)NCC(=O)N[C@@H](CC(=O)O)C(=O)N[C@@H](Cc2c[nH]c3ccccc23)C(=O)N2CCC[C@H]2C(=O)N1 ([Mpa][hArg]GDWPC-NH2; disulfide 1-7) 0.362%
COc1ccc(OC)c(Nc2nc3ccccc3n3c(C)nnc23)c1 4.81%
COc1ccc(COC(=O)c2[nH]c3c(c2C)C(=O)CC(c2ccc(OC)c(OC)c2)C3)cc1 (configuration not stated) 6.7%
O=C(Nc1cc(-c2nc3cc(Cl)ccc3o2)ccc1Cl)c1cccs1 3.07%
COc1ccc(-c2nc(CN3CCC(C(=O)NCCCN4CCN(c5ccccc5F)CC4)CC3)c(C)o2)cc1OC -28.6%
NC[C@@H]1O[C@H](C23CC4CC(CC(C4)C2)C3)Cc2c1ccc(O)c2O 19%
CC[C@H](C)[C@H](N)C(=O)O 37.5%
COc1cc(C(O)CO)ccc1O (configuration not stated) 5.01%
CC(=O)SC[C@@H](C)C(=O)N1CCC[C@H]1C(=O)N[C@@H](Cc1ccccc1)C(=O)O -6.2%

Reference: PubChem BioAssay AID1346428 (National Center for Advancing Translational Sciences (NCATS), 2018)
